The campaign covered roughly 48,000 compounds. About 550 (1.1%) were called active. About 4% were inconclusive and are not listed. Rule as the data show it: active = potency below about 15 µM; inconclusive = mostly about 16 µM to 33 µM; inactive = weaker than that. This is one part of the list.
biological target: Lysosomal acid glucosylceramidase (Homo sapiens) (UniProt P04062); assay: Glucocerebrosidase; conditions: purified enzyme, resorufin glucoside fluorescence (screen aimed at inhibitors), 20 min;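 also: the screen sought inhibitors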
How it was run: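 Wild-type enzyme at 0.2 nM final in 50mM citric acid/KH2PO4, 10mM sodium taurocholate, 0.01% tween-20, pH 5.9, with resorufin beta-D-glucopyranoside at 30 uM final. Compounds titrated, 20 min at RT, red fluorescence read; AC50 from titration.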
Potency is read from the fitted curve at half-maximal effect.

UniProt P04062, sequence (P04062 whole entry, looked up): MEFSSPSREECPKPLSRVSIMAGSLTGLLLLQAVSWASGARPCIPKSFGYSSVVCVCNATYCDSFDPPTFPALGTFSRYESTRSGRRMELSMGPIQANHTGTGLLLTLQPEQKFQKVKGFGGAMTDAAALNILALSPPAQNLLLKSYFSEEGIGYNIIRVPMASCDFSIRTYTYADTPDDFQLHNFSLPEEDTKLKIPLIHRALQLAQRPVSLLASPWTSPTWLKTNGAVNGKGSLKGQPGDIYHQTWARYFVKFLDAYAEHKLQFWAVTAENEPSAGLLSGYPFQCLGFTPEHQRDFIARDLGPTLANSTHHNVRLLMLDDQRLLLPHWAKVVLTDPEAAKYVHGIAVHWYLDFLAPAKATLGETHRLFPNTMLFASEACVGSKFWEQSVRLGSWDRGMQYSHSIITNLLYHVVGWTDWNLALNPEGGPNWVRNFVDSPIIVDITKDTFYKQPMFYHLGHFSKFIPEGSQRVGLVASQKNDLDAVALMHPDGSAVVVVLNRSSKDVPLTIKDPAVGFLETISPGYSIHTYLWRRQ

Potency, inactive:
CCC(C)(C)NC(=O)C(c1ccccc1F)N(Cc1ccco1)C(=O)c1csnn1 (stereo not drawn) > 76.9 µM
COCCN(CC(=O)Nc1cccc(C)c1)S(=O)(=O)c1ccc(S(=O)(=O)N2CCCC2)cc1 > 76.9 µM
Cc1ccc(CNC(=O)C2CCN(S(=O)(=O)N3CCOCC3)CC2)cc1
CCOC(=O)CSc1cn2c(n1)CCC2 > 76.9 µM
O=C(Nc1ccon1)c1cc(-c2ccccc2)nc2ccccc12 > 76.9 µM
Cc1nc2c(-c3ccccc3)c(C)nn2c(C)c1CC(=O)O > 76.9 µM
COc1cc(C)c(C#N)c(OC)n1 > 76.9 µM
O=C(Cn1cnc2ccccc2c1=O)NCCC(=O)N1CCN(c2ccccc2)CC1 > 76.9 µM
CCCn1c(CCc2ccccc2)nnc1SCC(=O)N1CCOCC1 > 76.9 µM
CCC(COC(=O)Nc1cccc(C)c1)NC(=O)OCC(C)C (stereo not drawn) > 76.9 µM
COCCCn1c(SCC(=O)OC2CCCCC2)nnc1-c1cccs1 > 76.9 µM
O=C(O)CSc1nnc(-c2ccncc2)n1CCc1ccccc1 > 76.9 µM
CC(=O)c1c(C)nn(CC(O)COc2ccc3c(c2)CCC3)c1C (stereo not drawn) > 76.9 µM
Cc1cc(NC(NC(=O)c2ccco2)(C(F)(F)F)C(F)(F)F)no1 > 76.9 µM
Cc1cc(C(F)(F)F)c2sc(N)nc2n1 > 76.9 µM
Cc1cc2c(c(=O)n1CCc1ccccc1)C(C(C)C)C(C#N)=C(N)O2 (stereo not drawn) > 76.9 µM
Cc1cc2oc(=O)cc(CN3CCCc4ccccc43)c2cc1C > 76.9 µM
Cc1nn(-c2ccc(Cl)cc2)c2[nH]c(=O)c(CNCc3ccc4c(c3)OCO4)cc12
CC(=O)NC1=NC(=O)CS1 > 76.9 µM
CCCS(=O)(=O)N1CCCC(C(=O)NCCCN(CC)c2cccc(C)c2)C1 (stereo not drawn) > 76.9 µM
Cc1n[nH]c(C)c1SCC(=O)Nc1ccc(F)cc1 > 76.9 µM
Cn1c(=O)cc(OCCCC(=O)N2CCN(c3ccccn3)CC2)c2ccccc21 > 76.9 µM
CCOC(=O)c1c(NC(=O)c2noc3c2CCCC3)sc2c1CCCC2 > 76.9 µM
COc1cc(Cl)c(S(=O)(=O)N2CC(C)OC(C)C2)cc1Cl (stereo not drawn) > 76.9 µM
CCC(c1nnnn1C1CCCCC1)N(Cc1ccco1)Cc1cc2ccc(OC)cc2[nH]c1=O (stereo not drawn) > 76.9 µM
Cc1ccc(CCNC(=O)C2CCN(S(=O)(=O)N3CCCC3)CC2)cc1 > 76.9 µM
Fc1ccccc1OCCSc1nc2ccccc2o1 > 76.9 µM
CC1(C)CC(=O)C2=C(C1)OC(N)=C(C#N)C2C#Cc1ccccc1 (stereo not drawn)
CCCc1cc(=O)[nH]c(/N=C(\N)Nc2ccccc2)n1 > 76.9 µM
Cc1c(C(=O)NCc2cccnc2)oc2c1C(=O)CC(C)(C)C2 > 76.9 µM
C/C=C(\C)CN1CCN(c2ccccc2F)CC1 > 76.9 µM
CC(C)COC(=O)NCCCOC(=O)Nc1ccccc1 > 76.9 µM
COc1ccc(Nc2nc(C)cc(C)c2C#N)cc1 > 76.9 µM
Cc1noc(NS(=O)(=O)c2ccc(NC(=O)CSc3nc4ccccc4s3)cc2)c1C > 76.9 µM
CCOC(=O)Cc1csc(NC(=O)C(C)(C)C)n1 > 76.9 µM
c1ccc(-c2nc(C3CCCCC3)no2)cc1 > 76.9 µM
COCCCNC(=O)CS(=O)Cc1nc(-c2cccc(OC)c2)oc1C (stereo not drawn) > 76.9 µM
CCn1c(SCC(=O)Nc2nnc(C)s2)nnc1-c1ccco1 > 76.9 µM
COc1ccc(-c2nsc3c(N4CCN(S(=O)(=O)c5ccccc5)CC4)ncnc23)cc1 > 76.9 µM
Nn1c(SCC(=O)N2CCCc3ccccc32)nnc1-c1ccc(Cl)cc1 > 76.9 µM
O=C(Nn1cc(C(=O)N2CCN(c3ccccc3F)CC2)c2ccccc2c1=O)c1cnccn1
CN1CCN(c2nc3c(c(=O)n(C)c(=O)n3C)n2CC(=O)C23CC4CC(CC(C4)C2)C3)CC1 > 76.9 µM
COc1ccc(C(=O)Oc2c(CN3CCOCC3)cc(Cl)c3cccnc23)cc1 > 76.9 µM
Cc1cc2cc(C(c3nnnn3Cc3ccco3)N3CCc4ccccc43)c(=O)[nH]c2cc1C (stereo not drawn) > 76.9 µM
COc1ccccc1NC(=O)Nc1ccnn1Cc1cccs1 > 76.9 µM
CCn1c(COc2cccc(OC)c2)nnc1SCC(=O)N1CCOCC1 > 76.9 µM
COC(=O)C1=C(N)Oc2cc(N(C)C)ccc2C1c1ccccc1OC (stereo not drawn) > 76.9 µM
COC(=O)c1ccc(NC(=O)CSc2nnc(CNc3ccc(OC)cc3)n2C)cc1 > 76.9 µM
CS(=O)(=O)N1CCCC(C(=O)NC2CCCCCCC2)C1 (stereo not drawn) > 76.9 µM
CC(C)NC(=O)Cn1c(SCC(=O)N2c3ccccc3CC2C)nc2ccccc21 (stereo not drawn) > 76.9 µM
COc1ccc(C2(C(=O)Nc3ccc(C(=O)O)cc3)CCOCC2)cc1 > 76.9 µM
Cn1c(=O)oc2cc(S(=O)(=O)NC3CCCCCCC3)ccc21 > 76.9 µM
COC(=O)COc1ccc(S(=O)(=O)NCc2cccnc2)cc1 > 76.9 µM
Cc1ccc(C)c2[nH]c(=O)c(CN(Cc3nnnn3C3CCCCC3)CC3CCCO3)cc12 (stereo not drawn) > 76.9 µM
O=S(=O)(c1ccc(F)c(Cl)c1)N1CCCC1 > 76.9 µM
COc1ccc(CCNC(=O)C2CCN(Cc3nc(-c4ccccc4F)oc3C)CC2)cc1OC > 76.9 µM
CCOCCCn1c(SCC(=O)NC(C)(C)C)nc2ccccc2c1=O > 76.9 µM
CC(C)CCN1CCNC(=O)C1CC(=O)Nc1ccc(F)cc1 (stereo not drawn) > 76.9 µM

— PubChem BioAssay AID360 (National Center for Advancing Translational Sciences (NCATS), 2006)
